Source: article PMC7409549, “A time-resolved interaction analysis of Bem1 reconstructs the flow of Cdc42 during polar growth” (Life Science Alliance, 2020)
No constants are given. Whether binding was seen depends on the method and setting. Binding seen in cells or lysates may run through a third protein. Some entries that bind do so weakly or less than the wild type.

Molecular target: T1, Bem1-Cub-RUra3 (S. cerevisiae), P29366
T1 chain: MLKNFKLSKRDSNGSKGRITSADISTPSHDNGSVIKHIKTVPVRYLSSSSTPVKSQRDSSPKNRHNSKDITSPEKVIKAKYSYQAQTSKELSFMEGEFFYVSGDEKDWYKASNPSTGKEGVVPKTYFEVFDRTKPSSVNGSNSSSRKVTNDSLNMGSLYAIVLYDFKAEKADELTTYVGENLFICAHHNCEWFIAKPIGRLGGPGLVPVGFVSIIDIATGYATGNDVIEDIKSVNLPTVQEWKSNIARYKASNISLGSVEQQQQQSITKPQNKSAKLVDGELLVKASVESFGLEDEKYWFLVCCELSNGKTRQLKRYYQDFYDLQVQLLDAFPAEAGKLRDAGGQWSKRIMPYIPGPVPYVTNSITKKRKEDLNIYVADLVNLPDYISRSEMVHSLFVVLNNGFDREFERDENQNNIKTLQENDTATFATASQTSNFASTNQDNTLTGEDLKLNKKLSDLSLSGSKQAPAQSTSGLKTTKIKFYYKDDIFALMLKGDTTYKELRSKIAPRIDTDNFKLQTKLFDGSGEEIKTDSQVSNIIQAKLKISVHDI
Assay: split reporter; split-ubiquitin (Split-Ub): a-cells with a Cub-RUra3 (CRU) fusion mated with α-cells with Nub fusions (P_CUP1), diploids as quadruplets on SD medium with 1 mg/ml 5-FOA and copper; growth = interaction; detects direct and indirect interactions
Settings: remark: other sources report otherwise

binding: binds
B1: Nub-Msb1, P21339 1-1137 (protein)
chain: MNDMAKPLPTPPTAEIRKSRSNSPKKAQKTNLSPNKNQNNEKNVPRSNGRTKNEHNSMDDEEFEFFHQFSREKVKGVIHVITAELKEKGPDVEFLMIPFRPEQTNDKLLTLLNQLFPLGNGQPVNEKKQLRIVSKADVWTLFQCLKYIWCRLPNSEIIGWKSYLEFKFREEDKKFPRKSFLEIMPQCLASPNHASIVYDFFDLIISISSNSRVNKMSARKISKMCAIWAFSKQIPNSDIQDYDFESAAMKSFAPNNSIQDGLDQWIPASDAMFHLLLAFLRSFVPQDLESAKLPRTLKSLLFNNQYPPRKSTAYTSETILTIPLVTLKTDVFSRKPWQLLERCNDLLDFSDHDAFEAREDYALLKSLFRKKNTVEGISRKMSQESRRLMKAMSTKHSTFQPGWAPRECIENISHLKECIEVKRLDIDDYFIWTWLSSLSFEQTSEKKKIFGRSIILEFEFDGFKKWVVFQECDITLDYNKKGQLKKKTSAQSPTTEKELPPDDFELEDPPLSKSPTLSQTYKKFQAEVPQQSTVRRDSAPDNQGIYHTVISKNALTKNKHNVNLHSFEHKISKWNPLNNLRKKSGSNSSSSSFEEKSKDAPIREEYHTNKNHKSKKEERVLSQFSTLNPDEYQLPVIETGSSNFKIEIPELMYEHDDDDSDKLKNSQKRATDSAIEELNGMVEEMMINEPDDVKISITEAETFESLTKFDQYKPSNITDDDLQSSHSSAVHSLKLSTNTNDSCADSSKYTADRKLAEPRKISEESKVNDDSSSYYSPNINNLPASRMPSQPTYSNSDSKKAFTNESRLNVLQGAVSPSQQVTPKPYKNAPGDCVSPVQQKYYQNDRRNEMSPASAPVPPSAYSPARSPQFSTNSAGFKQNTINVPVGYNDPAHVLANQPHMTYRDQHNYPSHQQKQRPFQNNIVPPELKSRNQRADASPIPQHMVPVKQGVPNLPSNVPLYQQMERMNPNHQHPVNTYKVTQPPYHNNTTNAYGNSRAGNAHMLDGKWSNNPPQMVPKGVRPNQYPQQHVNRYSPQAQPVVPAEYYNGPPPMRAPPMMSHMVPAQEPIRYTAGANRRSFPQGMQQNAYSVPAQPMGAVNSEFYLPEAPQGNKLHGNINKRQERKKLYDNIRSGNFGI
